Measurements as given in patent publication US20210015897A1, “METHODS TO PRODUCE PEPTIDES, POLYPEPTIDES OR CELLS FOR MODULATING IMMUNITY” (IMNATE SARL, priority 2017, published 2021).

System: NKT cells
Test: In vitro stimulation of NKT cells by peptide presented with dendritic cells
Conditions: peptide with CD8 cofactor complementary sequence in flanking residues
Method: The flavivirus non-structural glycoprotein NS1 protein contains epitopes potentially presented by the CD1d molecule. In order to identify them, synthetic peptides covering the entire sequence of the protein are produced, with an overlap of 5 aminoacids. Such peptides are then added for an overnight incubation to human dendritic cells obtained by conversion of peripheral blood monocytes, as detailed in Example 5. Loaded dendritic cells are then incubated in the presence of CD3+ lymphocytes obtained from PBMCs (see Example 2). Cultures are carried out in the presence of antibodies towards class I and class II molecules so as to prevent activation of corresponding cells.
After 3 to 4 stimulation cycles, the CD3+ T cells are recovered and analyzed in terms of phenotype and expression of the canonical transcription factor, PLZF. Cells are then further expanded and cloned.
Peptide of SEQ ID NO: 21 is produced by synthesis with inclusion in its flanking residues of a complementary sequence for the CD8 co-factor and used in vitro to stimulate NKT cells by presentation with dendritic cells.

SEQ ID NO: 21: Dengue NS1 CD1d epitope peptide with a complementary sequence for the CD8 co-factor in flanking residues (FIEVKSCHWSNTQQ; Flavivirus NS1 + CD8 motif)
NKT cell phenotype: forces NKT towards a cytotoxic phenotype
fate of the dendritic cell with which a synapse has been formed: eliminates the dendritic cell
